Data: US6384083B1, “USE OF ADAMANTANE AMINES OR STRUCTURALLY SIMILAR COMPOUNDS FOR COMBATING BORNA DISEASE VIRUS AND FOR THE PREVENTION AND TREATMENT OF AFFECTIVE DISEASES AND OTHER DISORDERS ASSOCIATED WITH BDV INFECTIONS IN HUMANS AND ANIMALS” (priority 1996, dated 2002)
Counter-ions that a name gives are not always drawn.

System: BDV-Hu-H1
Test: Inhibition of BDV replication in human oligodendroglia (OL) cells
Settings: 1.2 μg/mL

`NC12CC3CC(CC(C3)C1)C2` [amantadine sulfate] was tested, and the “time until virus titer is reduced to a level at which BDV can no longer be detected” value was 2 days.
